Data from the supplement of paper PMC6206098.
± gives the uncertainty stated by the source. The sequences are guide strands of siRNAs; only the seed at positions 2 to 7 varies.

How the values were obtained:
M565 = assay: cell viability relative to lipid-only control; higher = less toxic; settings: concentration: 10 nM; 96 h; Mus musculus
H460 = assay: as above; settings: concentration: 10 nM; 96 h; Homo sapiens
HeyA8 = assay: as above; settings: concentration: 10 nM; 96 h; Homo sapiens
3LL = assay: cell viability relative to siNT1 control; HeyA8 human ovarian and H460 human lung cancer; M565 mouse liver and 3LL mouse lung cancer; siNT1 is a non-toxic control siRNA; higher = less toxic; settings: concentration: 10 nM; 96 h; Mus musculus
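Throughout, for cell viability relative to lipid-only control: reverse lipid transfection in 384-well plates, in triplicate, of duplexes on a non-toxic 19mer backbone with passenger strand 2′-O-methylated at positions 1 and 2, luminescence viability read-out.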
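Throughout, for cell viability relative to siNT1 control: Luminescence-based viability of cells reverse transfected in 384-well plates with lipid-complexed siRNAs built on a non-toxic 19mer backbone whose passenger strand carries 2′-O-methyl groups at positions 1 and 2, triplicates.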

| Sequence | cell viability (M565) | cell viability (H460) | cell viability (HeyA8) | cell viability (3LL) |
| --- | --- | --- | --- | --- |
| UCGGGUGACAUGUAAACCAAA | 65.2 ± 2.1% | 72.9 ± 3.4% | 58.3 ± 2.9% | 93.7 ± 15% |
| UCCUGAUACAUGUAAACCAAA | 72.9 ± 7.2% | 75.5 ± 7.3% | 77.1 ± 2.4% | 84.7 ± 18% |
| UAAAUUCACAUGUAAACCAAA | 104 ± 9.7% | 60 ± 1.6% | 89.7 ± 6.9% | 99.7 ± 10% |
| UACCGUCACAUGUAAACCAAA | 8.65 ± 2.4% | 59.9 ± 2.5% | 62.5 ± 1.3% | 25.6 ± 6.2% |
| UCAAGGAACAUGUAAACCAAA | 50.7 ± 8.2% | 41.8 ± 1.5% | 87.3 ± 10% | 89.9 ± 21% |
| UGCCCCGACAUGUAAACCAAA | 60.3 ± 3.2% | 58.4 ± 3.8% | 75.3 ± 3% | 50 ± 14% |
| UUCAUUAACAUGUAAACCAAA | 72.1 ± 9.1% | 72.8 ± 9.1% | 95.9 ± 8.4% | 88.9 ± 1.8% |
| UCUUAAGACAUGUAAACCAAA | 65.3 ± 12% | 68.1 ± 6.8% | 86.3 ± 4.8% | 92.2 ± 15% |
| UCGUACAACAUGUAAACCAAA | 92 ± 12% | 75.9 ± 14% | 81.5 ± 4.8% | 89.3 ± 14% |
| UAAACGAACAUGUAAACCAAA | 67.2 ± 10% | 77.6 ± 19% | 81.7 ± 16% | 86.1 ± 5.5% |
| UCACUGGACAUGUAAACCAAA | 32.2 ± 5% | 29.8 ± 5.6% | 43.1 ± 4.2% | 66.7 ± 16% |
| UCUUGGUACAUGUAAACCAAA | 24.1 ± 4.7% | 47.4 ± 1.1% | 48.7 ± 3.2% | 91.2 ± 12% |
| UUACACAACAUGUAAACCAAA | 73.2 ± 14% | 66.5 ± 1.4% | 104 ± 3.1% | 97.8 ± 9.5% |
| UGUGCCCACAUGUAAACCAAA | 18.6 ± 3.6% | 57.1 ± 6.5% | 69.3 ± 9% | 26.5 ± 11% |
| UGGGACUACAUGUAAACCAAA | 14.6 ± 4.2% | 39.3 ± 4.7% | 47.8 ± 5% | 43.2 ± 3.5% |
| UCGUGGGACAUGUAAACCAAA | 24.6 ± 3.7% | 28.4 ± 2.1% | 30.4 ± 2.9% | 24.6 ± 3.8% |
| UUGUGCUACAUGUAAACCAAA | 94.4 ± 6.9% | 73.2 ± 7.9% | 54.5 ± 3.6% | 65.3 ± 12% |
| UACCCUGACAUGUAAACCAAA | 72.2 ± 9.6% | 56.7 ± 3.6% | 71.9 ± 14% | 82.3 ± 2.5% |
| UGCUGCUACAUGUAAACCAAA | 4.09 ± 6.2% | 41.9 ± 0.99% | 7.21 ± 0.59% | 33.5 ± 2.3% |
| UGGUAACACAUGUAAACCAAA | 43.1 ± 9% | 48.3 ± 5.8% | 9.32 ± 1.6% | 59 ± 4% |

| Sequence | cell viability (M565) | cell viability (H460) | cell viability (HeyA8) | cell viability (3LL) |
| --- | --- | --- | --- | --- |
| UUCGUCGACAUGUAAACCAAA | 88.2 ± 16% | 72.3 ± 5.2% | 90.8 ± 14% | 91.2 ± 14% |
| UAGAGUGACAUGUAAACCAAA | 32.5 ± 2.4% | 61.9 ± 9% | 77.3 ± 8.4% | 60.6 ± 2.8% |
| UCAAGAAACAUGUAAACCAAA | 58 ± 4.2% | 58.7 ± 5.6% | 85.9 ± 1.6% | 96.3 ± 25% |
| UGCGCCUACAUGUAAACCAAA | 38.4 ± 8.4% | 36.9 ± 1.7% | 46.3 ± 2.7% | 58.1 ± 12% |
| UCUUGACACAUGUAAACCAAA | 48.6 ± 11% | 43.3 ± 5.5% | 62.2 ± 7.5% | 83.3 ± 17% |
| UCUAACUACAUGUAAACCAAA | 80.5 ± 20% | 65.3 ± 12% | 78.6 ± 9.5% | 93.1 ± 15% |
| UCUGACUACAUGUAAACCAAA | 35.6 ± 7.6% | 43 ± 6% | 83 ± 4.2% | 94.2 ± 16% |
| UCCAUACACAUGUAAACCAAA | 76.1 ± 13% | 54.9 ± 1.7% | 74.2 ± 7% | 79.6 ± 17% |
| UUGCAGCACAUGUAAACCAAA | 33.6 ± 4.9% | 54.9 ± 2.5% | 70.5 ± 2.1% | 9.19 ± 0.58% |
| UAUAACGACAUGUAAACCAAA | 103 ± 4.7% | 81 ± 9.6% | 96.6 ± 12% | 103 ± 20% |
| UGUUCGGACAUGUAAACCAAA | 54.7 ± 12% | 81 ± 9.4% | 87.5 ± 8.8% | 99.7 ± 10% |
| UUUUUGAACAUGUAAACCAAA | 103 ± 20% | 70.7 ± 6.7% | 101 ± 11% | 94.9 ± 8.9% |
| UGGUAGUACAUGUAAACCAAA | 33.4 ± 4.2% | 39.9 ± 1.9% | 7.41 ± 1.9% | 23.4 ± 4.1% |
| UGGCGUAACAUGUAAACCAAA | 58.4 ± 14% | 71 ± 9.5% | 27.1 ± 3.3% | 87.2 ± 13% |
| UCCGUUAACAUGUAAACCAAA | 68.8 ± 6.5% | 74.2 ± 23% | 85.3 ± 1.4% | 95.8 ± 17% |
| UACCCCGACAUGUAAACCAAA | 41.6 ± 7.4% | 54.4 ± 4.2% | 68.9 ± 4.2% | 45 ± 9% |
| UCUGGGAACAUGUAAACCAAA | 31.2 ± 7% | 22.8 ± 2.2% | 6.07 ± 0.83% | 61.7 ± 21% |
| UGUACUAACAUGUAAACCAAA | 71.7 ± 6.2% | 93.5 ± 5% | 85.1 ± 5.3% | 92.2 ± 5.4% |
| UAUUAACACAUGUAAACCAAA | 98.9 ± 11% | 97.6 ± 8.6% | 86 ± 13% | 92.8 ± 17% |
| UGCGUUCACAUGUAAACCAAA | 44.5 ± 1.2% | 17.1 ± 1.4% | 15.5 ± 0.17% | 45.5 ± 3.4% |

| Sequence | cell viability (M565) | cell viability (H460) | cell viability (HeyA8) | cell viability (3LL) |
| --- | --- | --- | --- | --- |
| UCAUCUGACAUGUAAACCAAA | 38 ± 7.3% | 49.5 ± 5.5% | 64 ± 2.4% | 92.5 ± 18% |
| UAGUAUGACAUGUAAACCAAA | 33.7 ± 6.5% | 62.7 ± 2.7% | 53.06 ± 0.46% | 88.4 ± 3.7% |
| UGGUAUCACAUGUAAACCAAA | 71.3 ± 13% | 25 ± 1.3% | 32.3 ± 3.4% | 67.6 ± 5.6% |
| UAUCACAACAUGUAAACCAAA | 113 ± 18% | 36.1 ± 3.2% | 106 ± 3.2% | 106 ± 7.7% |
| UCCAUUUACAUGUAAACCAAA | 75.8 ± 3.1% | 69.4 ± 5.5% | 64.2 ± 1.9% | 80.9 ± 17% |
| UGGGGCCACAUGUAAACCAAA | 22.5 ± 9.4% | 11.5 ± 0.8% | 2.13 ± 0.24% | 22.9 ± 2.9% |
| UGAAGACACAUGUAAACCAAA | 2.68 ± 0.26% | 41.7 ± 0.67% | 23.7 ± 1.9% | 30 ± 2.6% |
| UUCCUCCACAUGUAAACCAAA | 56 ± 7.8% | 20.4 ± 3.3% | 26.7 ± 2.7% | 27.6 ± 4% |
| UAUGAGUACAUGUAAACCAAA | 60.4 ± 7.6% | 70.2 ± 7.4% | 96.1 ± 3.8% | 93.4 ± 9.5% |
| UUUGUCAACAUGUAAACCAAA | 97.6 ± 28% | 70.1 ± 4.8% | 102 ± 3% | 97.9 ± 13% |
| UUCGUAAACAUGUAAACCAAA | 94.4 ± 5% | 75.4 ± 4.7% | 96 ± 12% | 112 ± 20% |
| UACCAGCACAUGUAAACCAAA | 4.88 ± 2.2% | 32.9 ± 6.2% | 20.6 ± 1.4% | 8.04 ± 1.6% |
| UCAAAGAACAUGUAAACCAAA | 73.9 ± 6% | 59.7 ± 11% | 82.7 ± 10% | 87 ± 17% |
| UUAAAGUACAUGUAAACCAAA | 44.9 ± 9.2% | 35.3 ± 1.3% | 47.4 ± 3.9% | 46.6 ± 4.7% |
| UAUGAGGACAUGUAAACCAAA | 34.1 ± 12% | 65.3 ± 11% | 80.5 ± 8.8% | 86.1 ± 9.4% |
| UCCUAAGACAUGUAAACCAAA | 69.4 ± 7.5% | 67.8 ± 7.9% | 84 ± 5.7% | 92.6 ± 13% |
| UUUCACAACAUGUAAACCAAA | 78.2 ± 7.9% | 24.5 ± 2.7% | 98.7 ± 3.1% | 100 ± 6.6% |
| UUCGUAGACAUGUAAACCAAA | 80.3 ± 8.9% | 90.7 ± 5.2% | 98.6 ± 15% | 104 ± 13% |
| UAAAACCACAUGUAAACCAAA | 34.1 ± 8.2% | 38.3 ± 2.8% | 63.7 ± 3.7% | 56.8 ± 9.3% |
